PubChem BioAssay AID1159614 (National Center for Advancing Translational Sciences (NCATS), 2016)
Out of some 45,000 compounds screened, about 65 (0.1%) were called active. Calls come from the whole dose curve; as a rule, active = well fitted activation curve with a large enough effect; inconclusive = small, poorly fitted or top-dose-only effect; inactive = no such curve, though single readings can be large or run the other way. Some of the results follow.

target: Galactocerebrosidase (Homo sapiens) (UniProt P54803); assay: A Novel Cell-Based Assay to Identify Small Molecules for B -Galactocerebrosidase; settings: 145M-Twi-hGALC-G270D cells (Twitcher mouse brain line with human GALC G270D), HMU-beta-Gal fluorescence, 48 h; series mostly up to 57.5 µM; activation: at the top concentration; note: 0% is about no effect; nearly all actives have a fitted effect of over 65% in size
UniProt P54803, sequence (P54803 whole entry, looked up): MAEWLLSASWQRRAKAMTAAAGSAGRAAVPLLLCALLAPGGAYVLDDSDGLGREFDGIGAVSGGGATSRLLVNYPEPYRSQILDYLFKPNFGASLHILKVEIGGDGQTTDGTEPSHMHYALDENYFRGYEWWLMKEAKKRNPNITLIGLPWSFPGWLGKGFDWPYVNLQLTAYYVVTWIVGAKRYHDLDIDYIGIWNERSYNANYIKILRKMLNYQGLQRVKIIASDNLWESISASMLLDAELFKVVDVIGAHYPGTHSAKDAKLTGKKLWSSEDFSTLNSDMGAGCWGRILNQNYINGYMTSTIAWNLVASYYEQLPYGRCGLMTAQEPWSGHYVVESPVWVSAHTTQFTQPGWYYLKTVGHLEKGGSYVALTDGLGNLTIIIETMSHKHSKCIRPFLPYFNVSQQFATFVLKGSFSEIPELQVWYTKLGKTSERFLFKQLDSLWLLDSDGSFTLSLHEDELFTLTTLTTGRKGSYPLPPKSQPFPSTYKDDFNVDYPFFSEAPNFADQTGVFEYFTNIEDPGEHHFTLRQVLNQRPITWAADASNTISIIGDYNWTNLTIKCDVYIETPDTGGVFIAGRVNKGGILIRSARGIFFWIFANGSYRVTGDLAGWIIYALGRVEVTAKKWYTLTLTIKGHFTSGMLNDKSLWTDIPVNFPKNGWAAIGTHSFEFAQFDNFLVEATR
In short: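 Live 145M-Twi cells (Twitcher mouse brain-derived, GALC-null) stably expressing human GALC-G270D, with a wild-type GALC line, were compound-treated. Residual GALC activity was then read as fluorescence from 0.1 mM final HMU-β-gal at pH 5.2; higher signal means activation.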

activation, inactive:
COc1cccc(OCC(=O)Nc2nnc3n2CCS3)c1 -10.8%
CCc1ccc(C2=C(C)C(N3CCC(C(=O)NCCc4ccco4)CC3)=NS2(=O)=O)cc1 -17.8%
COc1ccc(NC(=O)c2cc3c(=O)n(Cc4cccnc4)ccc3nc2C)cc1Cl -17.6%
COc1ccccc1NC(=O)c1cc(S(=O)(=O)N2CCc3ccccc32)ccc1F -5.74%
COc1ccc(S(=O)(=O)c2cn(Cc3ccccc3)c3ccc(OC)cc3c2=O)cc1 -11.4%
O=[N+]([O-])c1nccn1CO[C@@H](CO)[C@H](O)CO -5.87%
COc1cc(-c2nnc(SCC(=O)Oc3ccccc3Cl)o2)cc(OC)c1OC -8.56%
CN(C)c1ccc(C(CNS(=O)(=O)c2ccc(F)cc2)N2CCc3ccccc32)cc1 (stereo not given) 8.85%
Cc1cccc(N2CCN(c3c4c(nc5nncn35)CCC4)CC2)c1C 8.63%
C=Cc1ccc(Cn2c(=O)cc(C)c3c(C)nn(C)c32)cc1 -11.4%
COc1ccccc1Cc1nc2ccccc2nc1SCC(=O)N1CCC(C)CC1 -12.4%
Cc1cccc(C(=O)Nc2ccc(N3CCN(c4ccc(F)cc4)CC3)c(C(=O)O)c2)c1 -19.2%
CCOC(=O)c1cc(-c2ccccc2)n(CCCC(=O)Nc2cc(C)ccc2OC)c1C -14.5%
O=c1c(N2CCc3ccccc3C2)csc2ccc(Br)cc12 -25.1%
CC(C)CCN(Cc1ccco1)C(=O)Cn1ncc2c([nH]c3ccccc32)c1=O -2.8%
COc1ccccc1NC(=O)c1cc(C2CC2)nc2c1c(C)nn2-c1ccc(C)cc1 -4.06%
CN1C(=O)c2[nH]nc(-c3ccc(F)cc3)c2C1c1ccccn1 (stereo not given) -25.6%
COc1ccc(S(=O)(=O)c2cn(Cc3ccccc3)c3cc(F)c(F)cc3c2=O)cc1 -18.4%
O=c1c(S(=O)(=O)c2ccc(Cl)cc2)cn(Cc2ccc(F)cc2)c2ccc(F)cc12 2.63%
COc1ccc(Nc2cc(C(=O)NCc3ccccc3)c3ccccc3n2)cc1OC -0.572%
CCOc1ccc(C(=O)NCc2ccc3c(c2)CCN3C(=O)c2ccc(C)cc2)cc1OCC -7.42%
Cc1ccc2nc(SCC(=O)Nc3ccc(C#N)cc3)[nH]c2c1 -12.9%
Cc1ccn2c(Nc3ccc4c(c3)OCCO4)c(-c3ccc(C)s3)nc2c1 -10.4%
Cc1c(C(=O)N2CCC(C)CC2)c(S(=O)(=O)N2CCN(c3cccc(Cl)c3)CC2)c(C)n1C -6.79%
COc1ccc(OC)c(NC(=O)CCc2nc(-c3ccc(C)cc3)no2)c1 -2.24%
O=C(CSc1ccc2nc(-c3ccccc3)cn2n1)Nc1cccc(F)c1 -2.77%
C=CCNc1nc(NCC=C)nc(N2CCN(C(c3ccc(F)cc3)c3ccc(F)cc3)CC2)n1 -10.8%
COc1ccc(NC(=O)c2c(NC(=O)Cc3ccccc3)sc3c2CCCC3)cc1 -19.8%
Cc1cccc(NC(=O)CSc2nc3ccc(NC(=O)COc4ccccc4F)cc3s2)c1 1%
OCCN1CCN(CCCN2c3ccccc3C=Cc3ccccc32)CC1 -16.6%
Cc1ccc(NC(=O)C2CCCN2S(=O)(=O)c2ccc3c(c2)CCCC(=O)N3)cc1Cl (stereo not given) -8.5%
CCN(CC)CCCNC(=O)CN1N=C(c2ccccc2)CCC1=O 1.53%
Cc1cc(F)ccc1NC(=O)Cn1c(=O)ccc2cc(S(=O)(=O)N3CCC(C)CC3)ccc21 -8.68%
COc1ccc(Cn2nnc3c(=O)[nH]c(C4CCN(C(=O)c5ccc(C)cc5)CC4)nc32)cc1OC 10.6%
COc1ccc(NC(=O)Cn2c(=O)n(Cc3ccc(C(=O)NCc4ccccc4Cl)cc3)c(=O)c3ccccc32)cc1 4.38%
Cc1ccc(NC(=O)Cn2nnc(C(=O)NCc3cccs3)c2N)cc1Cl -7.37%
COc1ccc(CNC(=O)c2ccc(CNS(=O)(=O)c3ccc(F)cc3)cc2)cc1 6.77%
COC(=O)c1sccc1S(=O)(=O)N(CC(=O)NCc1ccc(F)cc1)c1ccc(Cl)cc1 -4.35%
Cc1nn(CC(=O)N2CCN(c3cccc(C(F)(F)F)c3)CC2)c(=O)c2cccn12 -6.4%
Cc1nn(C)c2c1c(C(F)(F)F)cc(=O)n2C(C)C(=O)NCc1ccccc1Cl (stereo not given) 15.6%
Cc1ccccc1NC(=O)CSc1nnc(-c2cccs2)o1 -9.51%
Nc1c(CC(=O)O)cccc1C(=O)c1ccc(Br)cc1 -13.1%
COc1ccccc1NC(=O)CSC1=Nc2ccccc2C2=NC(CC(=O)NCc3cccs3)C(=O)N12 (stereo not given) -9.89%
COc1ccc(CCNC(=O)c2ccc3c(c2)N(Cc2ccccc2C)C(=O)c2ccccc2S3)cc1OC -18%
Cc1cc(C)cc(NC(=O)Cn2c(C(F)(F)F)nc3ccccc32)c1 -4.38%
Cc1oc(-c2cccc(Cl)c2)nc1Cn1c(SCc2ccccc2F)nc2ccncc21 -17.8%
COc1ccc(-n2ncc(C(=O)N3CCOCC3)c2C2CCN(C(=O)OC(C)(C)C)CC2)cc1 -6.49%
CCCCS(=O)(=O)c1nc(-c2ccc(Br)cc2)cc(-c2ccccc2)c1C#N -25.6%
N#Cc1ccccc1NC(=O)CSc1nnc(N)s1 -2.13%
COc1ccc(CNC(=O)c2cnc(N3CCOCC3)c3ccccc23)cc1 -5.54%
COc1ccc(NC(=O)CSc2nc(-c3ccco3)cc(C(F)(F)F)n2)cc1Cl -19%
CCCN(CCC)C(=O)Cn1c(=O)n(-c2ccc(Cl)cc2)c(=O)c2c3c(sc21)CCCC3 0.947%
Fc1ccc(-c2cn3cc(Cc4ccccc4)sc3n2)cc1 -25.4%
CCc1ccc2oc(-c3cc(NC(=O)c4cc([N+](=O)[O-])ccc4N4CCOCC4)ccc3Cl)nc2c1 -11.2%
Cc1ccc(Cl)cc1N1CCN(C(=O)c2cc3c(-c4ccccc4F)nn(C)c3s2)CC1 -7.59%
CC1CCc2c(sc3nnn(CC(=O)Nc4ccc(Cl)cc4)c(=O)c23)C1 (stereo not given) -15.7%
Cc1ccc(N2CCN(S(=O)(=O)c3ccc4[nH]c5c(c4c3)CCCCC5)CC2)c(C)c1 -30.9%
CCN(C(=O)c1cn(CC)c(=O)c2cc(OC)c(OC)cc12)c1ccc(C)c(C)c1 4.92%
C[C@@H]1CC[C@@]2(OC1)O[C@H]1C[C@H]3[C@@H]4CC[C@H]5C[C@@H](O)CC[C@]5(C)[C@H]4CC(=O)[C@]3(C)[C@H]1[C@@H]2C -8.82% [at 5.77 µM]
Cn1c(=O)c2sccc2n2c(CCCC(=O)NCc3ccccc3)nnc12 4.81%
O=C1COc2ccc(-c3cc(-c4ccccc4)c4c(n3)-c3cc(Cl)ccc3OC4)cc2N1 -3.69%
Cc1cccc(NC(=O)CCc2c(C)nc3c(c(C)nn3C(C)(C)C)c2C)c1C 3.61%
O=C(Nc1ccc(F)cc1)N1CCN(C(=O)c2nsc3ccccc23)CC1 -2.13%
COC(=O)c1cc2occc2n1CC(=O)Nc1ccc(C(C)C)cc1 -25.6%
COc1cccc(-n2nnc(-c3nc(-c4ccccc4F)no3)c2C)c1 -10.1%
CCSc1nn(CC(=O)Nc2ccc(C(=O)OC)cc2)c(N)c1S(=O)(=O)c1ccc(C)cc1 -3.82%
CSc1cccc(NC(=O)Cn2ncn3c(cc4ccccc43)c2=O)c1 -14%
COC(=O)c1cc(NC(=O)c2ccc3c(c2)NC(=O)c2ccccc2S3)cc(C(=O)OC)c1 -19.8%
COc1ccc(-c2nc3c(c(SCC(=O)N4CCCCC4)n2)Cc2c(CO)cnc(C)c2O3)cc1 -7.13%
O=C(Nc1cccc(F)c1F)C1CCN(c2ncccn2)CC1 -17.7%
Cn1nnc2c(N3CCN(c4cccc(C(F)(F)F)c4)CC3)ncnc21 -17%
Fc1ccccc1N1CCN(c2ncc3c(n2)CCN(Cc2cc(Br)cs2)C3)CC1 -17.3%
CCOc1ccccc1NC(=O)C(c1ccccc1)N1Cc2ccccc2C1=O (stereo not given) -0.0125%
COc1ccc(OC)c(CNC(=O)CN2CC(C)Sc3ccccc32)c1 (stereo not given) -32.8%
Cc1cccc(N2CCN(C(c3ccccc3)c3nnc(-c4ccccc4Cl)o3)CC2)c1C (stereo not given) -14%
COC(=O)c1ccccc1NC(=O)Cn1c(=O)n(-c2cccc(C(F)(F)F)c2)c(=O)c2c(C)c(C)sc21 2.21%
Cc1cccc2sc(N(CCCN(C)C)C(=O)COc3ccccc3)nc12 -14.1%
Cc1ccc(C)c(N2CCN(C(=O)c3cc(S(=O)(=O)N4CCCCCC4)cn3C)CC2)c1 -5.42%
COCCCNC(=O)c1ccc(Cn2c(SCc3cccc(C)c3)nc3cccnc32)cc1 -13.6%
Cc1ccc(S(=O)(=O)NCC2CCC(C(=O)NCCc3ccc(Cl)cc3)CC2)cc1 (stereo not given) -11.8%
CCOc1ccc(N(CC)S(=O)(=O)N2CCCC(C(=O)NCCc3ccc(OC)cc3)C2)cc1 (stereo not given) -11.8%
CCN(CC)S(=O)(=O)c1ccc2oc(C(=O)NCc3ccccc3OC)c(C)c2c1 -13.4%
CC(=O)CCCCn1c(=O)c2c(ncn2C)n(C)c1=O -9.5%
Cc1cc(C)c2c(n1)sc1c(=O)n(-c3cc(Cl)ccc3C)nnc12 -16.6%
O=C(/C=C\c1ccccc1)NC1CC(=O)N(c2ccccc2)C1 (stereo not given) -11.6%
CCCn1c(CCCNC(=O)c2ccccc2OC)nc2ccccc21 -8.54%
CCOC(=O)C1CCCN(C(=O)c2nn(-c3ccc(C)cc3)c(=O)c3c2c2ccccc2n3C)C1 (stereo not given) -13.1%
COc1ccccc1CNC(=O)c1cc2c(s1)-c1ccccc1OC2 -6.28%
CCC(=O)N1c2ccc(S(=O)(=O)CCC(=O)Nc3ccc(Br)c(C)c3)cc2CC1C (stereo not given) -12.2%
CCCCN(C)CCCNC(=O)Cn1ncc2c3ccccc3n(Cc3cc(C)ccc3C)c2c1=O -26.1%
CCN(Cc1ccccc1)C(=O)c1sc2nc3n(c(=O)c2c1C)CCCC3 -16.4%
CCOc1ccc(CNS(=O)(=O)c2ccc(-c3coc(C)n3)cc2)cc1OC -46.7%
CCN(CC)CCCNC(=O)c1nn(-c2ccc(C)cc2)c(=O)c2c1c1ccccc1n2C -13.8%
O=C(NCc1cccs1)c1ccc(Cn2c(SCc3ccc(F)cc3)nc3cccnc32)cc1 -2.88%
COc1cccc(NC(=O)c2cnc(SCC(=O)N3CCOCC3)n(C)c2=O)c1 -21.8%
